# Source: the supplement of paper PMC12632987
# In all, about 4,500 sequences were measured (“median log2 fold change of GCK-ALFA target abundance (FLAG IP / Myc IP barcode read proportion)”: median about 0.078, lowest 2% from about -0.6 on). Some of the results follow.
# B1: GBRAP_106_2564 (protein)
# chain: AKLEELKAFLREKLREEWAKVPAVTDAIVERFGEDREEATRAVRAHALDYVNDEVRRKMKSLGIDNPELIRRLRETLHALRDAPLEEQIAAAEAVLEEGL
# B2: GBRAP_35_5613 (protein)
# chain: EDVQLAVDSFVDMAEAIIELIPEIDDETLAALAQSLIKFAKSLLKEEKNNKEALEKIKEAMEKLLEALKKYRSDNPLIQKVAKEVQEVIKEAEKAIKEVK
# B3: GBRAP_160_4387 (protein)
# chain: GEELEKLAKEIEKLRKEFVEEAKDLNTEETRTLAKGVLAEVAALVFENEAVSEETQDKIFEIIDDALEEIDENADAPPEEIVAITTEAFDKIIKLVKEEK
# B4: GBRAP_184_5129 (protein)
# chain: TVVHETVEGTTADKLIADAKAVVDAAAARGERLNLHVIAENMSVDEIITVIKALGAIKAAHPEVTIILDVLDELSEEEIDRLVKAADEAGVRLVVAIKEE
# B5: GBRAP_78_6632 (protein)
# chain: EVEELVDKALEELGRAARLAQKLPPEAQNEVLDLIVDAASDLLEAEENGFDLKLLEEALAHAEAALKKVKELDLPEAKALAEELKKAIELLKKAIELVKK
# B6: GBRAP_184_5169 (protein)
# chain: MVLEFEIEVKDVAEAKAKIAAIAEEVKGKKAELYVIVEVERLTVEIAKAIIAGLKAIKDAGYVTSITVEFTGEIDEEALDTAIKLADEAGIKLVVAIDEE
# B7: GBRAP_160_4000 (protein)
# chain: MEEIEELKEEIEEIIDETIAAMEGLTPEERLTLVRGMVGEIIQLVEDSPAVSDEAEDEIAELGDELVEEVEANRDAPLEVWRELLERFLEEIKKILDKEE
# B8: GBRAP_172_5001 (protein)
# chain: GVTLLELDLLGLSREEAVAAATAAVKAAIAATGADLVVAVVADDQATVDAVEAAVKAVAAAAGKKVVVVGEAYRSEADRARVRAAAEAEKINLEYEQEEK
# B9: GBRAP_166_4887 (protein)
# chain: SAAERQAAADALRKETIAELKKLSDSEVLEKMDIVADYVERMKELGFSKEEIVKTTIEIMKEVKATKQQVNAAAAVVIAFADLDEEEIDLLDKLIKELFA
# B10: GBRAP_26_5501 (protein)
# chain: IEEKLKEAEEELKKAAKELLDPELAAVLNAEIDDIFAEAEDELEENKDDPEKQKKIVEEMEKELKKAVEELGVPEEAAKKLKELIKEKAKEIKEYIEKIA
# B11: GBRAP_184_5160 (protein)
# chain: KVLEKTIEASNLEEVKEKLKEVREEAKKTKGDLYVILRLKNPTKEMLKLILDELGEILKEGLAKRVVLGIENDLDEEMIDFVVERADEEGVQVVIAISDE
# B12: GBRAP_95_7016 (protein)
# chain: DDDQLAVESLAEALEAAVDLGDEEAAKKYAKEAVKLVAAHPEAKFIPDLSPEAVKVLIEAAKETLSPEETAAVLAKLAASLKDPEAKALAEAALAEVEAA
# B13: GBRAP_160_4679 (protein)
# chain: SMKVEKAKKEIDEEFAFVLSLHDEVTPEQLAAAVRVAFGELKLYLEELGLLTDEVEEEIDDEEDEIVDAILANPDITREEFAALLEEAREEIVEELEKAD
# B14: GBRAP_9_7136 (protein)
# chain: MSEVVEKIIELFKEAEEDILKVVPEEYKPLVKEVFDEAIKKLKELQKDKNLTLEKLRKTVEELIAKMKEIFDANLPPDVARMVNAILYTMEEEIEEILEE
# B15: GBRAP_153_3946 (protein)
# chain: GAEAAARLERALALLERIRAEGGDPALIRELAALIRSLTPEQRLEVARAMNALSPELVHRIFRVLATEEGFSVEELLEMTTELDLEHEAAALEAIVEAQK
# B16: GBRAP_52_6009 (protein)
# chain: MREELRERLEEALALVRAGRLEEARALVTELVESLDEEELELLIELLAEMAREAAPEDFDAVWTLAELVAEEMRRAGKDEVLADLLEARVAAALYEAEQR
# B17: GBRAP_159_3959 (protein)
# chain: MEARLAALRADLEALGASPELIAAAVEAVELAEEGEDAESIAAHLIHLYTVLGATTEEILTVLSHLPPELAREVAEILAEWAEEQGDAELAAALRAFLAA
# B18: GBRAP_52_5912 (protein)
# chain: MREELREKAEEILELVKAGKLEEARELARELVEELSEEELELFIEEFERLVLEAPKEELPYFWKAAEIIAEELEEEGKDEVLADLLLSRTAAAIYKVLQK
# B19: GBRAP_172_5007 (protein)
# chain: SYKEIRKVIDSEDAEEAKRELERVIREASKYPGAIVAIAVRVKNEEDAEEVEAYGEALAKKYPHITVEIFVSHDPSLNLEQIAQALLDNAILEREEEEEE
# B20: GBRAP_160_4070 (protein)
# chain: SEELEKLKKEIEEIFDEAIEMMKGENHENRVTIARVMRGEVVLLLEENPSISEEAVEAADKIGDELVATLEANPDLTDEEIEKLIKEARAKILKAIEEHT
# B21: GBRAP_128_3599 (protein)
# chain: AAEEAAAYAREMMEKIKNSDDAEAAEIAKELADYLLGLSLEEVEAVAKEIIKRLPELTADKLVILQDALHAAAKKASPEKAEVLLYALGEAGEEAYELEE
# B22: GBRAP_52_5957 (protein)
# chain: MEEEIERDAEELLALVRAGDEEGARALAREIARTYNDEELRLFAEVLARRAREAAPEDLDAIWRLAEILAEEIERAGKDPALAGDLLAKVAAAIYEKELE
# B23: GBRAP_184_5294 (protein)
# chain: KVKEVVIEAETAEEALKKIEEAAEEAKKEGVKLELYLYLKNVSAEGFEKIAKKLKELKEEGIIEKAIVDLLDEKSEEEVDKFVKIADEAGINLVVALSDE
# B24: GBRAP_186_5388 (protein)
# chain: EEEAEEELDRVIDEAEAQGYTVIVSYLENKSLEEQKEAIKRDAEAVAALAKETGKKYALIVYVKTKKEDIEKLKEFAKELNEKYLAETGVLVRLVVEDSE
# B25: GBRAP_52_6289 (protein)
# chain: SEEEVEKIVEEIVELIKEGKLEEAIELARRAARELSLEEVLRLGELLIERIKTLPEEHLELAWEVVEELAREIEERFGAEEEADYLEARAAAAIYERLQA
# B26: GBRAP_131_3606 (protein)
# chain: LKGRLAVIDEPLSVEEMLARVDEIIEEAVEEGADAVVIRLRNQSPEVYEAAEERVDERDEELLEERGMRLVVLPPGTTEEEARNILEALLLEVELEKEEE
# B27: GBRAP_11_2729 (protein)
# chain: KKAQLKALAEQAEALAKEIEALIKEGATEEKLKALAKQAKALADQAKAIGAPQSIVDDLQFAADSLEEAIKDPSNTEEHLKEAAAAARVAAGQLLLELEE
# B28: GBRAP_26_5431 (protein)
# chain: VSEIIDKMLDKLDAAFDELLDPDKAAMAKAEVATELEEVEEKIEEEDLSIEEIKELFEEMIEEIIEFLKELGVSEETIEKLREYMEEVAEEALEEIEKER
# B29: GBRAP_35_5554 (protein)
# chain: EFDKEVLEMMKATAEDVLLAVEDMDPETLFATTTSIGNATLKLIEEEKEEKEEMKELAEATLEAIDAAIKKLEEQGAPKEDIEKLKELKKKIEEALKKRE
# Molecular target: GABARAP, O95166
# Assay: median log2 fold change of GCK-ALFA target abundance (FLAG IP / Myc IP barcode read proportion) (log2 ratio); each designed protein is fused to an ALFA-tag nanobody in HEK293 cells to bring the named protein to FLAG-tagged glucokinase (GCK); Myc marks an untargeted standard; higher = target protein stabilised (more abundant)
# Details: target protein: 3xFLAG-MCP-GCK-ALFA reporter; HEK293 landing pad (RPLP)
# Procedure, shortened: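 The readout is target abundance, the per-binder median log2 ratio of FLAG to Myc barcode read proportions. It came from HEK293 landing-pad cells carrying a recombined ALFA-nanobody-fused binder library, induced with 2 μg mL^−1 doxycycline and transfected with a plasmid for a FLAG-tagged target and a Myc-tagged standard. After 48 h, lysates were immunoprecipitated with anti-FLAG and anti-Myc, and circular RNA barcodes were reverse transcribed, amplified and sequenced. Each barcode needed a proportion of at least 10^−7 in both replicates and each binder at least 3 barcodes per replicate, a pseudocount of 10^−6 was added, and the replicates were pooled.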
# GABARAP, O95166, sequence (O95166 whole entry, the tested form may be a part): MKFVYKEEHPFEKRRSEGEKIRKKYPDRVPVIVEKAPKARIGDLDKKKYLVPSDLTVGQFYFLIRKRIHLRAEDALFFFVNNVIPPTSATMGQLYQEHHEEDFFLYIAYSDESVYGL
row,Binder,median log2 fold change
1,B1,0.0418
2,B2,-0.07
3,B3,0.187
4,B4,-0.158
5,B5,-0.0489
6,B6,0.108
7,B7,-0.0825
8,B8,0.235
9,B9,0.173
10,B10,0.308
11,B11,-0.121
12,B12,0.252
13,B13,-0.296
14,B14,0.224
15,B15,0.106
16,B16,-0.0383
17,B17,0.124
18,B18,-0.524
19,B19,0.111
20,B20,-0.32
21,B21,0.335
22,B22,-0.00895
23,B23,-0.157
24,B24,-0.0259
25,B25,-0.123
26,B26,-0.0292
27,B27,0.241
28,B28,-0.364
29,B29,0.441
